# Reference: PMC6919601, “Identification of Plasmodium dipeptidyl aminopeptidase allosteric inhibitors by high throughput screening” (PLoS ONE, 2019)
# Out of some 110,000 compounds screened, about 230 (0.21%) showed an effect of 50% or more. This is one part of the list.
# Target: DPAP1 (Plasmodium falciparum, UniProt Q8IIJ9)
# Assay: primary screen, percent inhibition; read by cleavage of a fluorogenic dipeptide substrate; higher = more effect of the substance
# Parameters: species or system P. falciparum D10 trophozoite lysates; single well
# 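Also: 30 min substrate incubation versus DMSO and 10 µM JCP410 controls.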
# Sequence of DPAP1 (Q8IIJ9 whole entry, looked up): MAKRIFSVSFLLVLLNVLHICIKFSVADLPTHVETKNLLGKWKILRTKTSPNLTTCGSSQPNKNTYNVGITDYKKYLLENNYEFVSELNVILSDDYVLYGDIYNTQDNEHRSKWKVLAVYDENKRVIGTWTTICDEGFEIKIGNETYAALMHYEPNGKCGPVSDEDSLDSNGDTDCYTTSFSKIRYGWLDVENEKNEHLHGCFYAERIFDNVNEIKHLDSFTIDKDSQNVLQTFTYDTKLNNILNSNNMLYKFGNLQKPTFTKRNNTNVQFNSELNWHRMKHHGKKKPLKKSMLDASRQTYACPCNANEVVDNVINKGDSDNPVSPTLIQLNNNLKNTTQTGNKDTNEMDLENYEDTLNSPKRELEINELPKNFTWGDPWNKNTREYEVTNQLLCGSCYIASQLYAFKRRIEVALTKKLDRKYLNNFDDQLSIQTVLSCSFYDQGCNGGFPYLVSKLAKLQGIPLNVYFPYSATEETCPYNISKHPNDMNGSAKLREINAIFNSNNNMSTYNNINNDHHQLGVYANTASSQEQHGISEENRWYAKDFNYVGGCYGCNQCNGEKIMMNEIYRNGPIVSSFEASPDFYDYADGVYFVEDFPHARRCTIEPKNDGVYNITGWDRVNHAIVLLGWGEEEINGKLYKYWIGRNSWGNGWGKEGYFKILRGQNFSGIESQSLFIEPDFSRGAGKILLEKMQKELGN
row,Compound,% Inhibition @ 10 uM [%]
1,COc1ccc(-n2c(SCc3ccccc3Cl)nc3nncc-3c2O)cc1,1.42
2,COc1cc(SC)ccc1C(=O)NCCOc1ccc(F)cc1,3.39
3,Cc1ccc(NC(=O)c2ccc(Cl)cc2Cl)nc1,2.01
4,COc1ccc(CNc2nc3nc(-c4ccccc4)cc(O)n3n2)cc1OC,2.62
5,CCOc1cc(C2CC(=O)NC3=C2C(=O)CC(c2cccs2)C3)cc(Br)c1O (stereo not drawn),-1.62
6,Cc1nn2cc(-c3ccc(C)c(C)c3)nc2s1,4
7,Cc1ccc(NC(=O)C(C)Oc2ccccc2)c(C)c1 (stereo not drawn),-0.872
8,COc1ccc2cc(Br)ccc2c1CC(=O)Nc1cccnc1,-5.48
9,CCN1CCN(C(=O)c2cn(C3CCCCC3)c(=O)c3c2c2ccccc2n3C)CC1,0.163
10,c1ccc(C(OCCN2CCNCC2)c2ccccc2)cc1,1.4
11,Cc1ccccc1C(=O)NC1(C(F)(F)F)C(=O)Nc2c1c(=O)[nH]c(=O)n2CCc1ccccc1 (stereo not drawn),-2.98
12,O=C(CN(C1CCCCC1)S(=O)(=O)c1ccc(F)cc1)N1CCCCCC1,1.92
13,Nc1nnnn1/N=C\c1ccc(O)cc1,15.8
14,COCCCNC(=O)/C(=C\c1ccco1)NC(=O)c1ccc(C)cc1,-5.6
15,CN1CCN(C(=O)C(=O)c2c[nH]c3ccccc23)CC1,2.08
16,CC(=O)Nc1cccc(NC(=O)c2ccccc2Br)c1,-5.65
17,O=C(O)CNC(=O)/C(=C/c1ccco1)NC(=O)c1ccccc1,0.76
18,Cc1ccc(C(=O)NCc2ccco2)cc1C,18.5
19,CCCSC1=C(C#N)C(c2ccccc2)CC(=O)N1 (stereo not drawn),-1.32
20,COc1ccc2c(c1)c(C(=O)N1CCN(c3ccccc3)CC1)c(C)n2C,-1.11
21,COc1ccc(CCNC(=O)C23CCC(C)(C(=O)C2=O)C3(C)C)cc1OC (stereo not drawn),-2.84
22,CC(C)CS(=O)(=O)C1=NSC2=NC(=O)/C(=C\c3ccc4c(c3)OCO4)C(=N)N21,8.07
23,COc1ccc(C2C3=C(O)CC(C)(C)CC3=Nc3nc(O)nc(O)c32)cc1OC (stereo not drawn),-3.9
24,CC(C)CC(NC(=O)OCc1ccccc1)C(=O)NCC(=O)COc1ccccc1 (stereo not drawn),-0.778
25,Cc1nc2ccc(S(=O)(=O)NCC(=O)NCc3ccc4c(c3)OCO4)cc2s1,-4.24
26,CC1=C(CCN2CCC(C(N)=O)CC2)C(C)(C)CCC1,-1.41

row,Compound,% Inhibition @ 10 uM [%]
1,CCCCNCc1c(C(=O)O)c(C)n(Cc2ccc(F)cc2)c1C,-3.67
2,COc1ccc(S(=O)(=O)c2c(O)nc3cc(C(=O)NCc4ccccc4Cl)ccc3c2O)cc1,6.05
3,CCc1ccc(NC(=O)c2cc3nc(C(F)F)cc(C(F)F)n3n2)cc1,-3.26
4,COCCCNC(=O)CCc1nc2cccnc2n1Cc1ccc(OC)cc1,-1.08
5,CCN1CCN(Cc2cc([N+](=O)[O-])ccc2Cl)CC1,3.25
6,CCCCC1CCC(C(=O)N(Cc2cc(OC)c(OC)c(OC)c2)C2CCS(=O)(=O)C2)CC1 (stereo not drawn),1.9
7,COc1ccc(NC(=O)CCCOc2ccc(Cl)cc2C)c(OC)c1,-2.22
8,CC(C)CSc1nc2c(c(=O)[nH]c(=O)n2C)n1CCc1ccccc1,4.7
9,COc1ccc(-n2nc3c(c2NC(=O)c2ccccc2C(F)(F)F)CS(=O)(=O)C3)cc1,2.65
10,CCOC(=O)c1c(NC(=O)c2sc3nc(C)cc(COC)c3c2N)sc2c1CCCC2,1.72
11,CCCCCn1c(CN2CCN(Cc3ccccc3)CC2)nc2c1c(=O)[nH]c(=O)n2C,43.2
12,COC(=O)c1sccc1NC(=O)C1CCCN(c2ncnc3onc(C)c23)C1 (stereo not drawn),-2.07
13,COc1ccccc1NC(=O)c1ccc(S(=O)(=O)N2CCCCC2C)cc1 (stereo not drawn),-3.83
14,O=C(NC1CCCCC1)c1ccc(CNS(=O)(=O)c2ccc(Br)cc2)cc1,-7.16
15,COc1ccc(OC)c(C2C(C#N)=C(N)N(c3nc[nH]n3)C3=C2C(=O)CCC3)c1 (stereo not drawn),0.343
16,CC(C)C(=O)Nc1ccc(C(=O)Nc2cc(C(F)(F)F)ccc2Cl)cc1,-3.26
17,Cc1ccc(N(CC(=O)N2CCc3ccccc3C2)S(=O)(=O)c2ccccc2)cc1,-0.173
18,CC(C)CCN1C(=O)c2ccc(C(=O)NCc3ccco3)cc2C1=O,-1.82
19,O=C(Nc1cccc(NC(=O)c2nc[nH]n2)c1)c1cccc(Cl)c1,4.94
20,CC/N=c1\sc(C(=O)OC)cc(=O)n1CC,-7.13
21,C=CCn1c(NCc2ccccc2C)nc2ccccc21,3.24
22,NS(=O)(=O)c1ccc(CCNS(=O)(=O)c2cc(Cl)ccc2Cl)cc1,-12.8
23,Cc1ccc(-n2nc3c([n+]2[O-])CCc2c-3no[n+]2[O-])cc1,1.37
24,COc1ccc(OC)c(NC(=O)C(C)Oc2ccccc2)c1 (stereo not drawn),0.992
25,COc1ccc(C(=O)/C=C/c2ccco2)cc1,60.2
